Test results taken from PubChem BioAssay AID493208 (National Center for Advancing Translational Sciences (NCATS), 2011).
The whole screen tested about 44,000 compounds, of which about 340 (0.77%) were called active. Not shown: some 5% with an inconclusive outcome. Calls come from the whole dose curve; as a rule, active = well fitted inhibition curve with a large enough effect; inconclusive = small, poorly fitted or top-dose-only effect; inactive = flat fitted curve, though single readings scatter. Some of the results follow.

Test: Acumen qHTS Assay for Inhibitors of the mTORC1 Signaling Pathway in MEF (Tsc2-/-, p53-/-) Cells: Sytravon; note: nearly all actives have a fitted effect of over 50% in size;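 for activity change, negative = inhibition: plate controls were DMSO for no effect and rapamycin for full effect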
Conditions: phospho-rpS6 immunofluorescence/PI, 24 h; series mostly up to 38.3 µM; activity change, negative = inhibition: at the top concentration
How it was run: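 Plate MEFs (Tsc2-/-, p53-/-, empty vector) in DMEM/10% FBS; after 24 h add compound, incubate 24 h at 37 degree Celsius; fix in PFA/TX-100, block, stain phospho-rpS6 and 10 uM PI; scan at 488 nm; report % positive cells.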
Potency is the fitted concentration of half-maximal effect.

Activity change, negative = inhibition, inactive:
Cc1ccc(CNc2nc3ccc(Cl)cc3n3nnnc23)cc1 -14.7%
COC(=O)CC1Oc2ccc(F)cc2-n2cc(-c3ccc(C)cc3)nc21 (stereo not drawn) -24.6%
COc1cc(NC(=O)CCn2c(=O)oc3ccccc32)cc(OC)c1OC -1.88%
COc1cc(OC)c(NS(=O)(=O)c2c(C(=O)N3CCCCCC3)c(C)n(C)c2C)cc1Cl -4.55%
Cc1cc(-c2ccc(C)c(S(=O)(=O)Nc3ccccn3)c2)on1 -2.19%
COc1ccc(N(Cc2cccs2)C(=O)COc2cccc(C)c2C)cc1 -1.25%
CSc1ccc(NC(=O)C2CCN(c3ncccn3)CC2)cc1 -1.58%
CCN1CCN(c2ncc3c(n2)CCN(CC(C)C)C3)CC1 0%
CCOc1ccc(-n2ccnc2SCC(=O)Nc2cccc3ccccc23)cc1 -1.17%
COc1ccc(Br)cc1CNC(=O)c1ccc2nc(C(C)C)oc2c1 -7.37%
COc1ccccc1CNC(=O)CCCCn1c(=O)c2ccccc2n(CC(=O)Nc2c(C)cc(C)cc2C)c1=O -22.4%
CCOc1ccccc1CNC(=O)CCC(=O)N1CCSc2ccccc21 -1.46%
COc1ccccc1Cc1nc2ccccc2nc1SCC(=O)Nc1ccc2c(c1)OCO2 -13.6%
CCCN(CCC)C(=O)CSc1c2c(nc3ccc(Cl)cc13)CCCC2 -12%
Cc1ccc(NC(=O)CN2C(=O)C(c3ccc(C(C)(C)C)cc3)=NC2(C)C)cc1 0.893%
O=[N+]([O-])c1cc(-c2nc(-c3ccccc3)no2)ccc1NCc1cccnc1 2.5%
COc1ccc(N2CCN(C(=O)COc3ccccc3C#N)CC2)cc1 -0.935%
Cc1cc(C)cc(-n2c(SCC(=O)Nc3cccc(F)c3)nc3c([nH]c4ccccc43)c2=O)c1 -1.49%
COc1ccc(OC)c(NC(=O)Cn2c(=O)n(Cc3ccco3)c(=O)c3cc(OC)c(OC)cc32)c1 -0.761%
Cc1ccc(C)c(NC(=O)C(Cc2ccccc2)n2cccc2)c1 (stereo not drawn) -4.02%
Cc1ccc(C(=O)Nc2ccc(-c3nc4ccccc4o3)cc2)cc1Cl 5.69%
Cc1ccc(NC(=O)C2CCC(CNS(=O)(=O)c3ccc4c(c3)CCCC(=O)N4)CC2)cc1F (stereo not drawn) -2.83%
COCCNc1nc2c(c(=O)n(Cc3cccc(Cl)c3)c(=O)n2C)n1C -3.89%
COc1ccc2c(c1)c1c(c(=O)n(Cc3ccccc3)c(=O)n1Cc1ccccc1Cl)n2C -0.576%
CCc1ccc(NC(=O)C2=C(C)C(=O)OC23CCCCC3)cc1 -3.79%
COc1ccc(OCC(=O)Nc2c(C(=O)N3CCN(c4ccccc4)CC3)oc3ccccc23)cc1 3.28%
CCOC(=O)c1c(-c2ccc(OC)c(OC)c2)csc1NC(=O)c1ccc(C)cc1 -3.82%
CCCCN1CCCc2cc(CN(CCCN3CCOCC3)C(=O)Nc3ccc(CC)cc3)ccc21 -0.356%
O=C(NCc1ccc(F)cc1)c1cc2cccc3c2n1CCS3 3.49%
O=C(O)c1cccc(NC(=O)c2cc3cc(Br)cc(Br)c3oc2=O)c1 5.29%
COc1ccc(S(=O)(=O)N(CC(=O)NCCSc2ccccc2)c2ccc(C)cc2)cc1 -23.2%
CC(=O)c1cccc(NC(=O)Cc2ccc(NC(=O)N3CCCCc4ccccc43)cc2)c1 -1.46%
COC(=O)c1ccc(NC(=O)C(=O)NCC(c2cccnc2)N2CCN(c3ccccc3)CC2)cc1 (stereo not drawn) 1.23%
CCOC(=O)c1cc(-c2ccccc2)n(CCC(=O)NCCc2cccc(C)c2)c1C -7.43%
COc1ccc(S(=O)(=O)NCCc2sc3nc(-c4ccc(C)cc4)nn3c2C)cc1C -2.75%
CCC(=O)N1CCc2cc(S(=O)(=O)CCC(=O)N3CCN(c4ccccc4F)CC3)ccc21 0.163%
CN1CCN(C(CNC(=O)C(=O)Nc2ccc(F)cc2)c2cccnc2)CC1 (stereo not drawn) -4.73%
Cc1cc2oc(C(=O)Nc3nc(-c4ccccc4)ns3)c(C)c2cc1Cl -6.94%
Cc1ccc(NC(=O)CN2C(=O)CCc3cc(S(=O)(=O)N4CCOCC4)ccc32)c(C)c1 1.22%
CCOc1ccc(CNC(=O)c2sc3nc(C)cc(C)c3c2-n2cccc2)cc1 -2.36%
CC(=O)c1ccc(NS(=O)(=O)c2ccc3[nH]c4c(c3c2)CCCCCC4)cc1 -10.2%
CCC(CC)C(=O)N1CCc2cc(OC)c(OC)cc2C1COc1ccccc1OC (stereo not drawn) 6.6%
Cc1ccc(C)c(Cn2nnc(C(=O)NCc3ccccc3)c2N)c1 -2.04%
CCOc1ccc(NC(=O)CSc2nnc(NC(=O)Nc3ccccc3)s2)cc1 1.63%
Cc1nc2cc(-c3cccc(F)c3)nn2c(C)c1CCC(=O)NC1CCCCC1 -11.4%
CCOc1ccc(-c2nonc2NC(=O)COc2ccc(C)c(C)c2)cc1OCC -1.68%
COc1ccc(-c2nn(C)c3sc(C(=O)N4CCN(c5cc(Cl)ccc5C)CC4)cc23)cc1OC -3.26%
O=C(c1ccc2c(c1)N(Cc1cccc(Cl)c1)C(=O)c1ccccc1S2(=O)=O)N1CCN(c2cccc(C(F)(F)F)c2)CC1 -0.126%
CCOc1ccc(-c2cnc(NCc3cccc(Cl)c3)n2C)cc1 -2.38%
COc1ccc(C(=O)CCC(=O)Nc2cccc(C(C)=O)c2)cc1 -0.629%
COc1ccc(CCNC(=O)Cn2c(=O)c3cccn3c3ccc(F)cc32)cc1OC 10.6%
Cc1ccccc1-n1nc(CO)c(C(=O)NCCc2ccccc2)n1 1.72%
COc1cccc(NC(=O)C(=O)NCC(c2cccnc2)N2CCN(c3ccccc3)CC2)c1 (stereo not drawn) 0%
COc1ccc(OC)c(CNc2ncnc3onc(-c4ccc(Cl)cc4)c23)c1 -27.9%
CCOC(=O)CSc1nc2ccc(NC(=O)COc3ccccc3)cc2s1 -7.39%
Cc1cccc(CSc2cn(CC(=O)N3CCCCCC3)c3ccccc23)c1 -24.9%
CCCOc1ccc(-c2cccc(NS(=O)(=O)c3cc(OC)ccc3OC)c2)nn1 -2.02%
O=C(NCc1ccc(Cl)cc1)c1cnc2sc(N3CCCCCC3)nn2c1=O 0.721%
CCN(CC)c1ccc(NC(=O)c2cnn3c(C(F)F)cc(-c4ccccc4)nc23)cc1 15.4%
O=C(CCC(=O)N1Cc2ccccc2Oc2ncccc21)NCc1ccccc1Cl 6.33%
COc1ccc(C(c2c(O)cc(C)n(Cc3ccco3)c2=O)N2CCN(c3ccccc3)CC2)cc1 (stereo not drawn) -0.873%
CCOC(=O)c1c(NC(=O)CSc2cn(CCNC(=O)c3ccc(OCC)cc3)c3ccccc23)sc2c1CCCC2 3.66%
COc1cccc(N2C(=O)C(CC(=O)Nc3cccc(F)c3)N(C(C)C)C2=O)c1 (stereo not drawn) -5.03%
Cc1cccc(CC(=O)NC2CC(=O)N(c3cccc(F)c3)C2)c1 (stereo not drawn) -15.4%
Cc1cc(N2CCCCC2)nc2ccc(NC(=O)c3ccc(F)cc3)cc12 -0.398%
COc1ccc(OC)c(NC(=O)C2CCN(S(=O)(=O)c3ccc(C)cc3)CC2)c1 -2.35%
COCCNC(=O)CSc1nc(-c2ccc(F)cc2)[nH]c1-c1ccc(Cl)cc1 0.895%
CC(CNC(=O)Cn1ncc2c3ccccc3n(Cc3cccc(Cl)c3)c2c1=O)c1ccccc1 (stereo not drawn) 1.18%
O=C(COc1ccccc1)Nc1ccc(OCc2cc(=O)n3ccsc3n2)cc1 -0.202%
CCOc1ccc(C(=O)Nc2ccc(S(=O)(=O)N(Cc3ccccc3)c3ccccc3)cc2)cc1 -6.96%
COc1ccc(OC)c(C2CC(=O)N(c3cccc(C)c3)C3=C2C(=O)OC3)c1 (stereo not drawn) -10.8%
CN(C(=O)CSc1nc2ncccc2o1)c1ccc(F)cc1 -20.4%
CC(C)CCNC(=O)C(=O)Nc1c2c(nn1-c1ccccc1)CS(=O)(=O)C2 -2.97%
O=C(CSc1nc2cc3ccccc3cc2[nH]1)Nc1cccc(C(F)(F)F)c1 -6.79%
CNS(=O)(=O)c1cn(CC(=O)Nc2ccc(OC)c(Cl)c2)cc1S(=O)(=O)NC -4.71%
COc1ccccc1N1CCN(S(=O)(=O)c2ccc(-c3cc(C(F)(F)F)on3)s2)CC1 -9.44%
CCOC(=O)c1cc(OC(=O)c2cccc(C)c2)n(-c2ccccc2)n1 -14%
COCc1cc(C)nc2sc3c(c12)NC(c1ccc(NC(C)=O)cc1)N(c1ccc(C)cc1)C3=O (stereo not drawn) -0.701%
COc1cccc(CNc2ncnc3onc(-c4ccc(F)cc4)c23)c1 -7.07%
O=c1c2ccccc2n(Cc2cccc(Cl)c2)c(=O)n1CCc1ccccc1 2.07%
COc1ccc(-c2cc(C(C)=O)c(C)n2CCC(=O)Nc2cc(C)ccc2OC)cc1 -7.77%
CC(=O)NCCc1nc2ccccc2n1CCCCOc1ccc(Cl)cc1 -7.12%
COc1cccc2cc(-c3nc4sc(C(=O)Nc5ccc(F)cc5F)c(C)c4c(=O)[nH]3)c(=O)oc12 6.72%
Cc1ccc(C)c(N2CCN(c3ncnc4onc(C)c34)CC2)c1 -15.3%
COCc1cc(C)nc2sc3c(=O)n(-c4cc(C)ccc4C)nnc3c12 3.61%
CCOC(=O)c1ccccc1NC(=O)N1CCN2CCCCC2C1 (stereo not drawn) -0.449%
CC(=O)Nc1nonc1-c1nnc(SCC(=O)Nc2cc(C)ccc2C)n1-c1ccccc1 -23.3%
COc1ccccc1CCNC(=O)Cc1c(C)c2ccc(O)cc2oc1=O 2.58%
CCOc1ccc(Nc2oc(/C=C/c3ccc(F)cc3)nc2C#N)cc1 -2.31%
COc1ccc(CNc2nc3c(S(=O)(=O)c4ccccc4)nnn3c3ccc(Cl)cc23)cc1 -9.47%
Cc1ccc(NC(=O)C(=O)NCC(c2cccnc2)N2CCN(C)CC2)cc1C (stereo not drawn) 7.2%
COc1ccc(NC(=O)c2oc3c(c2C)-c2nn(Cc4c(F)cccc4Cl)cc2CC3)c(OC)c1 -16.2%
Cc1ccc(OCC(=O)Nc2ccc(C(=O)OCc3cc(=O)n4nc(C5CC5)sc4n3)cc2)cc1 0%
CCc1ccc(NC(=O)c2cc3ccccn3n2)cc1 -12.1%
Cc1cc(C)c2c(CC(=O)Nc3nnc(C(C)C)s3)coc2c1 -4.31%
Fc1ccccc1CNCCCSc1nnnn1-c1ccccc1 -19.2%
O=C(CSc1nc(=O)[nH]c2c1CCCC2)Nc1cc(C(F)(F)F)ccc1Cl -0.467%

Potency, active:
Brc1ccc(Nc2c3c(nc4nncn24)CCC3)cc1 5.85 µM
